Measured values as given in PMC10350115.
These are yes or no findings as the source states them, for the method shown. In cells and extracts the contact can be indirect. Some results given as binding are weak or reduced against the parent protein; the word gives no strength. Sequences can lack the tags named with a protein.

The chains behind the UniProt entries cited, without tags or fusion partners. Residues count along the entry.
UniProt Q9CXZ1, residues 43-175: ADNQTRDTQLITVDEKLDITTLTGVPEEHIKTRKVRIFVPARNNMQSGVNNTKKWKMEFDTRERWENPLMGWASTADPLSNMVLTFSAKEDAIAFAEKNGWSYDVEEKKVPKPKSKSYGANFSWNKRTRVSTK

B1: STOML2-HA fusion protein, full length wild type (protein, UniProt Q99JB2 29-353)
chain: SSGLPRNTVILFVPQQEAWVVERMGRFHRILEPGLNVLIPVLDRIRYVQSLKEIVINVPEQSAVTLDNVTLQIDGVLYLRIMDPYKASYGVEDPEYAVTQLAQTTMRSELGKLSLDKVFRERESLNANIVDAINQAADCWGIRCLRYEIKDIHVPPRVKESMQMQVEAERRKRATVLESEGTRESAINVAEGKKQAQILASEAEKAEQINQAAGEASAVLAKAKAKAEAIRILAGALTQHNGDAAASLTVAEQYVSAFSKLAKDSNTVLLPSNPSDVTSMVAQAMGVYGALTKAPVPGAQNSSQSRRDVQATDTSIEELGRVKLS
B2: STOML2-HA Δ70–109 (β1–3 sheets mutant) (protein, UniProt Q99JB2)
chain: SSGLPRNTVILFVPQQEAWVVERMGRFHRILEPGLNVLIPVMDPYKASYGVEDPEYAVTQLAQTTMRSELGKLSLDKVFRERESLNANIVDAINQAADCWGIRCLRYEIKDIHVPPRVKESMQMQVEAERRKRATVLESEGTRESAINVAEGKKQAQILASEAEKAEQINQAAGEASAVLAKAKAKAEAIRILAGALTQHNGDAAASLTVAEQYVSAFSKLAKDSNTVLLPSNPSDVTSMVAQAMGVYGALTKAPVPGAQNSSQSRRDVQATDTSIEELGRVKLS
B3: STOML2-HA ΔCTD (Δ213–353) (domain or fragment, UniProt Q99JB2 29-212)
chain: SSGLPRNTVILFVPQQEAWVVERMGRFHRILEPGLNVLIPVLDRIRYVQSLKEIVINVPEQSAVTLDNVTLQIDGVLYLRIMDPYKASYGVEDPEYAVTQLAQTTMRSELGKLSLDKVFRERESLNANIVDAINQAADCWGIRCLRYEIKDIHVPPRVKESMQMQVEAERRKRATVLESEGTRE
B4: STOML2-HA Δ110–168 (α1–4 helices mutant) (protein, UniProt Q99JB2)
chain: SSGLPRNTVILFVPQQEAWVVERMGRFHRILEPGLNVLIPVLDRIRYVQSLKEIVINVPEQSAVTLDNVTLQIDGVLYLRIGIRCLRYEIKDIHVPPRVKESMQMQVEAERRKRATVLESEGTRESAINVAEGKKQAQILASEAEKAEQINQAAGEASAVLAKAKAKAEAIRILAGALTQHNGDAAASLTVAEQYVSAFSKLAKDSNTVLLPSNPSDVTSMVAQAMGVYGALTKAPVPGAQNSSQSRRDVQATDTSIEELGRVKLS
B5: STOML2-HA ΔHP (Δ29–78) (protein, UniProt Q99JB2)
chain: LKEIVINVPEQSAVTLDNVTLQIDGVLYLRIMDPYKASYGVEDPEYAVTQLAQTTMRSELGKLSLDKVFRERESLNANIVDAINQAADCWGIRCLRYEIKDIHVPPRVKESMQMQVEAERRKRATVLESEGTRESAINVAEGKKQAQILASEAEKAEQINQAAGEASAVLAKAKAKAEAIRILAGALTQHNGDAAASLTVAEQYVSAFSKLAKDSNTVLLPSNPSDVTSMVAQAMGVYGALTKAPVPGAQNSSQSRRDVQATDTSIEELGRVKLS
B6: STOML2-HA ΔSTOM (Δ79–212) (protein, UniProt Q99JB2)
chain: SSGLPRNTVILFVPQQEAWVVERMGRFHRILEPGLNVLIPVLDRIRYVQSSAINVAEGKKQAQILASEAEKAEQINQAAGEASAVLAKAKAKAEAIRILAGALTQHNGDAAASLTVAEQYVSAFSKLAKDSNTVLLPSNPSDVTSMVAQAMGVYGALTKAPVPGAQNSSQSRRDVQATDTSIEELGRVKLS
B7: STOML2-HA Δ169–212 (β4 sheet and α5 helix mutant) (protein, UniProt Q99JB2)
chain: SSGLPRNTVILFVPQQEAWVVERMGRFHRILEPGLNVLIPVLDRIRYVQSLKEIVINVPEQSAVTLDNVTLQIDGVLYLRIMDPYKASYGVEDPEYAVTQLAQTTMRSELGKLSLDKVFRERESLNANIVDAINQAADCWSAINVAEGKKQAQILASEAEKAEQINQAAGEASAVLAKAKAKAEAIRILAGALTQHNGDAAASLTVAEQYVSAFSKLAKDSNTVLLPSNPSDVTSMVAQAMGVYGALTKAPVPGAQNSSQSRRDVQATDTSIEELGRVKLS
B8: STOML2-HA ΔN-term1 (Δ59–212) (protein, UniProt Q99JB2)
chain: SSGLPRNTVILFVPQQEAWVVERMGRFHRISAINVAEGKKQAQILASEAEKAEQINQAAGEASAVLAKAKAKAEAIRILAGALTQHNGDAAASLTVAEQYVSAFSKLAKDSNTVLLPSNPSDVTSMVAQAMGVYGALTKAPVPGAQNSSQSRRDVQATDTSIEELGRVKLS
B9: STOML2-HA ΔN-term2, deletion mutant of HP and STOM (Δ29–212) (protein, UniProt Q99JB2)
chain: SAINVAEGKKQAQILASEAEKAEQINQAAGEASAVLAKAKAKAEAIRILAGALTQHNGDAAASLTVAEQYVSAFSKLAKDSNTVLLPSNPSDVTSMVAQAMGVYGALTKAPVPGAQNSSQSRRDVQATDTSIEELGRVKLS

molecular target: GST-NDUFS4 fusion protein (mouse) (UniProt Q9CXZ1); assay: pull-down; 2 ug GST or GST-NDUFS4 immobilised on Glutathione Sepharose 4B beads, incubated 3 hrs at 4°C with cleared HEK293T lysate (TNTE buffer, 150 mM NaCl, 1.0% Nonidet P-40) with STOML2-HA constructs; immunoblot; only the target purified

| binding | Binder |
| --- | --- |
| binds | B1 |
| no binding | B2 |
| binds | B3 |
| binds | B4 |
| binds | B5 |
| no binding | B6 |
| no binding | B7 |

molecular target: NDUFS4-FLAG (mouse) (UniProt Q9CXZ1); assay: co-IP; HEK293T transfected; cells cross-linked with 1 mM dithiobis(succinimidyl propionate); RIPA then NETN buffer; Anti-FLAG M2 magnetic beads overnight, eluted with 3X FLAG peptide; IgG as control

| binding | Binder |
| --- | --- |
| no binding | B8 |
| binds | B3 |
| no binding | B9 |
